# Data published in PubChem BioAssay AID743279 (National Center for Advancing Translational Sciences (NCATS), 2014).
# Screen size: about 360,000 compounds; about 17,000 (4.7%) were called active. This list was built around the results that the source calls inconclusive (neither active nor inactive); the mix of calls is not that of the screen. Cut-off read from the data, not from the text of the source: active = activity change below about -50%; inconclusive = mostly about -30% to -49%; inactive = weaker than that.
# Test: qHTS for Inhibitors of Inflammasome Signaling: IL-1-beta AlphaLISA Primary Screen
# Settings: THP-1 LPS/ATP IL-1B secretion, 16 h; at 57.5 µM, stronger effect = lower value
# Method in brief: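 THP-1 cells pretreated 1 hr with compounds (up to 57.5 uM final), then stimulated with LPS (250 ng/mL final) plus ATP (1.25 mM final); secreted IL-1B measured by AlphaLISA after 16 hr, decreased signal indicating inhibition.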
# % is set by controls: 0 for no effect and ±100 for the full control effect.
row,SMILES,activity change
1,COc1ccc(-c2cnc(NCc3cc4c(cc3[N+](=O)[O-])OCO4)n2C)cc1,active: -51.5%
2,CCOC(=O)c1sc(NC(=S)NC(=O)C23CC4CC(CC(C4)C2)C3)cc1C,inactive: 43.2%
3,O=C1N=C2N(CCN3CCCCC3)c3ccccc3N2/C1=C\c1ccc([N+](=O)[O-])s1,inactive: -18.7%
4,CCc1nc(Nc2ccccc2)c2nnn(Cc3ccccc3)c2n1,inconclusive: -40.5%
5,Cc1c(C)n(Cc2ccccc2)c2ncnc(NCCN(C)C)c12,inconclusive: -38.2%
6,Cc1cccc(C)c1NC(=O)C(c1ccnc2ccccc12)N1CCN(C)CC1 (configuration not stated),inactive: 31.4%
7,CCOc1ccc(-c2[nH]ncc2-c2ccc(OC)c(OC)c2)c(O)c1,inactive: -11.8%
8,CC(C)n1ncc2c(C(=O)NCc3cccnc3)cc(C3CC3)nc21,inconclusive: -31.8%
9,CCOc1ccc(-c2ncncc2-c2ccc(OC)cc2)c(O)c1,inconclusive: -34.4%
10,COc1ccc(-c2csc(N(CCCN(C)C)C(=O)c3ccc(OC)c(OC)c3)n2)cc1,inactive: 0%
11,Oc1ccc(N2CCN(Cc3cc4c(cc3Br)OCCO4)CC2)cc1,inactive: -2.1%
12,CC(C)(C)OC(=O)[C@H](CCCCN)NC(=O)c1[nH]cnc1C(=O)N[C@@H](Cc1ccccc1)C(=O)OCc1ccccc1,inactive: 24%
13,O=C(CCC1CCCCC1)Nc1ccc(C(=O)c2ccncc2)cc1,active: -92.2%
14,O=C(Nc1ccccc1)[C@@H]1CC=C[C@@H]2CCN(Cc3ccc(Cl)c(Cl)c3)C(=O)[C@@H]21,inconclusive: -42.3%
15,CSc1ccc(CN(C)C(=O)c2cc(S(=O)(=O)NCc3ccccc3)ccc2C)cc1,inconclusive: -30.9%
16,O=C(Cc1ccc(S(=O)(=O)N2CCOCC2)s1)NCCOc1ccccc1F,inactive: 6.24%
17,C=CCSc1ccsc1C(=O)O,inconclusive: -30.9%
18,COc1ccc(C(=O)NC2CC2)cc1OC1CCN(C/C=C/c2ccccc2)CC1,inconclusive: -45.7%
19,Cc1nnc(SCc2ccc(C(=O)Nc3cc(Cl)ccc3C)cc2)s1,inconclusive: -42%
20,Clc1ccc(/C=C/c2ncc3ccccn23)cc1,inconclusive: -43.5%
21,OCC1(Cc2ccccc2)CCN(Cc2cnn(-c3ccccc3F)c2)CC1,inconclusive: -35.8%

row,SMILES,activity change
1,CC(=O)c1ccccc1OCC(O)CN1CCN(CCN2C(=O)c3cccc4cccc(c34)C2=O)CC1 (configuration not stated),inconclusive: -39.9%
2,CCc1nc2ccc(C(=O)NC(C)(C)C)cn2c1N(CC)Cc1cccc(Br)c1,active: -58%
3,CCOC(=O)N1CCN(C(=O)COc2cc(=O)n(C)c3ccccc23)CC1,inactive: -14.5%
4,Cc1cc(Nc2ccccc2)n(-c2ccccc2)n1,inactive: 19.2%
5,O=C(CSc1nnc(Cc2cccs2)n1Cc1ccco1)Nc1ccc(Cl)cc1Cl,inconclusive: -41.5%
6,CCOc1ccc(-c2noc(CCC(=O)NC3CCCCC3)n2)cc1OC,inactive: -20.5%
7,CC1CC=C2C(C#N)=C(N)C(C#N)(C#N)C(c3cccs3)C2C1 (configuration not stated),inconclusive: -36.7%
8,C[C@@H]1C(c2cccc(Cl)c2)=NN(c2ccc(Br)cc2)[C@H]1C(=O)N1CCOC1=O,active: -51.3%
9,CN(CCc1ccccc1)C(=O)c1ccc(NC(=O)Cc2ccc(NC(=O)C3CCN(C(=O)C4CCC4)CC3)cc2)cc1,inconclusive: -45.6%
10,COC(=O)c1cc(NS(=O)(=O)c2ccc(N3CCOCC3)c(N)c2)cc(C(=O)OC)c1,active: -54.1%
11,COc1cc(/C=C/C(=O)N(C)CC(=O)Nc2ccccc2Br)cc2c1OCCO2,inconclusive: -44%
12,CCOC(=O)c1c(C)oc2c1c(C=NCc1ccccn1)c(O)c1ccccc12,active: -94%
13,CN(C(=O)c1ccc(-c2nn(C)c(=O)c3ccccc23)cc1)C1CCCCC1,inconclusive: -38.7%
14,O=C(CN(Cc1ccccc1Cl)C(=O)c1ccc(CN2CCOCC2)o1)NCC1CCCO1 (configuration not stated),inconclusive: -32.2%
15,CCOC(=O)c1cc2c(=O)n3cccc(C)c3nc2n(CCCOC)c1=NC(=O)c1cccnc1,inconclusive: -45.8%
16,Cc1cc(/C=C(\C#N)C(=O)Nc2ccccc2)c(C)n1-c1ccc2c(c1)OCO2,inconclusive: -45.3%
17,Cn1ccs/c1=N\C(=O)Nc1ccccc1,inactive: 5.57%
18,CCOC(=O)N1CC=C2C(C#N)=C(N)C(C#N)(C#N)[C@H](c3ccc(OCC)c(OCC)c3)[C@H]2C1,inactive: -14%
19,CC(C)C[C@@H]1CN=C(N)N1C[C@@H]1CCCN1C[C@@H](C(C)C)N1C[C@@H](Cc2ccccc2)N(CCc2ccc(Cl)c(Cl)c2)C1=N,inconclusive: -34.9%
20,COc1cc(/C=C(/C(=O)c2cccs2)c2nc3ccccc3[nH]2)cc(OC)c1O,active: -97.5%
21,CN(C)S(=O)(=O)c1ccc(C(=O)OCC(=O)c2csc(N3CCCCC3)n2)cc1,inactive: 20%
